Measurements as given in ChEMBL document CHEMBL4888484, “Replenishing the malaria drug discovery pipeline: Screening and hit evaluation of the MMV Hit Generation Library 1 (HGL1) against asexual blood stage Plasmodium falciparum ,using a nano luciferase reporter read-out” (2022).
Screen size: about 150,000 compounds; about 540 (0.36%) showed an effect of 50% or more. The list shows a part of the results.

What follows are compounds tested on Plasmodium falciparum (assay: Primary screen in NF54 nanoGlo assay, in single point, at 2uM, 72h; a lower Z score goes with more inhibition). Conditions: timepoint 72 hour.
Format: functional, Erythrocyte

SMILES	% Inhibition [%]	Z score
CN(CCn1cnnc1)c1ccc(C(F)(F)F)cn1	-7	1.15
Cc1cc(C(=O)N2CC(Nc3cccnn3)C2)no1	-15	1.78
Cc1cc(-c2c(-c3ccccc3)ncn2[C@H](CO)c2ccccc2)[nH]n1	-1	0.26
Cc1sc(NC(=O)c2cccs2)c([C@@H](c2ccc(F)cc2)N2CCCC2)c1C	2	-0.38
COc1ccc(NC(=O)[C@@H]2COCC(=O)N2Cc2ccc(C)cc2)c(C)c1	5	-0.58
CC(C)CCNC(=O)c1ccc(CNS(=O)(=O)c2ccc(-c3cccc(F)c3)s2)cc1	-1	0.18
N#CC1(NC(=O)c2cccc(S(=O)(=O)N3CC4CC5CC4C3C5O)c2)CCCC1 (stereo not drawn)	6	-0.67
C[C@H]1CCCCN1C(=O)c1ccc(NCCC(=O)c2ccc3c(c2)OCO3)cc1	-5	0.59
CS(=O)(=O)c1ccc(-c2ccc3[nH]nnc3c2)cc1	-15	2.06
COCCn1c(-c2ccc(C)cc2)cc(C(=O)N2CC3(C2)C[C@](C)(O)CO3)c1C	0	0.05
O=C(NCC1CCN(Cc2cnc(N3CCOCC3)nc2)CC1)c1ccon1	-5	0.95
O=C(c1ccccc1)N1CCC2(CC1)C[C@@H](N1CCOCC1)CCO2	-7	1.42
CC(C)CN1C(=O)CC[C@@H](C(=O)Nc2ccc3c(c2)N(C)CCC3)[C@H]1C	-11	1.41
C#Cc1cccc(NC(=O)C(=O)N(CC)CCc2nccs2)c1	-2	0.24
Cc1ccc(NC(=O)Cn2cc(S(=O)(=O)N3CCOCC3)ccc2=O)cc1	-1	0.16
COCC[C@H]1CN(C(=O)c2cccn3cc(C)nc23)CCO1	-9	1.7
O=S(=O)(Nc1ccc(-c2cc3ccccc3[nH]2)cc1)c1ccc2c(c1)CCCC2	-21	1.87
COc1ncccc1[C@@H]1C[C@H](NC(=O)c2ccccc2)C[C@H](C(C)C)O1	-6	1
CC(C)(C)[C@@H]1CCN(C(=O)c2cnc3ccccc3n2)CCO1	-25	3.24
CCc1cccc(C)c1N1C[C@@H](C(=O)N(CC)C2CCOCC2)CC1=O	-6	1.1
CN1CCN(C(=O)CC[C@H]2CCCN(Cc3ccc4ccccc4c3)C2)CC1	-7	1.17

SMILES	% Inhibition [%]	Z score
COCCOc1ccc(NCc2cncs2)cc1F	-7	0.93
CCN(Cc1ccccc1O[C@@H](C)C(=O)O)CC(F)(F)F	-6	0.61
Cc1cccc2c1OCC(NC(=O)N1C[C@@H](C#N)[C@H](c3ccccc3)C1)C2 (stereo partly drawn)	-19	1.62
CCNC(=O)C(=O)NCc1ccc(Cl)cc1	38	-4.87
Cc1cnc(C(=O)NC[C@H]2CCCN(C/C=C/c3ccccc3)C2)cn1	-13	2.64
Cc1nc(CCNC(=O)Cc2ccsc2)no1	-8	1.02
COCCc1ccc(OCc2ccccc2-c2cnc(N)cn2)cc1	-11	2.03
Cc1ccccc1C(=O)NCCC(=O)N1CCCCCCC1	-2	0.32
Cc1ccc(NC(=O)OC(C)(C)C)c2c1N(C(=O)[C@H]1CCCO1)CCC2	-15	1.5
O=C1NCCCCC1NC(=O)N1CCCC1c1cccs1 (stereo not drawn)	-15	1.74
CC(C)[C@H](CNS(=O)(=O)c1ccc2c(c1)CC(C)(C)O2)C(=O)O	-10	1.78
CCOc1ccc(N2C(=O)c3[nH]nc(-c4ccco4)c3[C@H]2c2cccnc2)cc1	6	-0.73
CC(C)(C)OC(=O)N1CCc2nc[nH]c2C1(C)C	-12	1.68
CCc1[nH]nc(NS(C)(=O)=O)c1C	-8	1.49
CCCCC(=O)Nc1ncc2c(n1)C(=O)CC(C)(C)C2	4	-0.74
NC(=O)c1ccccc1NC(=O)C1CCN(c2cc(C3CC3)ncn2)CC1	57	-10.93
COc1cc(CNCCN(C)C)cc(Br)c1OCC#N	-23	2.07
CCc1ncc(CN(C)C(=O)C2CC3CCCCC3N2)s1 (stereo not drawn)	2	-0.3
Cc1csc(C[C@H]2CCN(C(=O)c3cc4cccnc4[nH]3)C2)n1	14	-1.82
O=C(Nc1cccc(Oc2cccnn2)c1)c1ccc2ncsc2c1	35	-2.92
CCCc1nccn1CCn1nc2ccccn2c1=O	14	-1.59

SMILES	% Inhibition [%]	Z score
CC1CCCC(OCc2nnc(-c3ccncc3)o2)C1 (stereo not drawn)	-8	1.04
Nc1nc(C2CC2)ncc1C(=O)N1CCCc2n[nH]cc21	1	-0.21
Cc1ccc2c(c1C)NC(=O)C21NC(Cc2ccccc2)[C@H]2C(=O)N(C3CCCCCC3)C(=O)[C@H]21 (stereo partly drawn)	-14	2.18
O=c1c2c(nc3n1CCCN3)CCCC2	-5	1.04
CCOc1ccc(-n2c(N3CCOCC3)nc3cc(C(=O)NCc4ccccc4)ccc3c2=O)cc1	-7	1.38
Fc1ccc(-c2csc(-n3nccc3-c3ccc(Cl)cc3Cl)n2)cc1	-13	1.63
COc1ccc(S(=O)(=O)N2CCN(Cc3noc(CCC(=O)N(C)Cc4ccccc4)n3)CC2)cc1	29	0.24
CN(Cc1ccccc1)C(=O)C1CC=CCC1C(=O)Nc1ncc(-c2ccc3c(c2)OCO3)n1C (stereo not drawn)	36	-4.7
COc1ccc(OCc2nc3cc4c(cc3cc2C(=O)O)OCO4)cc1	31	-0.51
Cc1ccc(-c2cc3c(N4CCCN(C)CC4)nccn3n2)c(C)c1	33	-0.53
COc1cc2c(=O)ncn(Cc3cc(F)cc(F)c3)c2cc1F	5	-0.92
COc1ccc(OC)c(NC(=O)C(C)(C)Oc2ccc([C@H]3CC3(Cl)Cl)cc2)c1	-13	1.64
CCNC(=O)[C@H]1Cc2ccccc2CN1C(=O)c1cccnc1	5	-0.86
COc1ncccc1CNC(=O)CC1CCCC1	-4	0.48
C[C@H]1CN(C(=O)NCC(C)(C)c2cccs2)CCS1(=O)=O	-15	2.06
O=C(NCCN1CCCC1)c1ccc2nc(-c3ccc(Cl)cc3)cn2c1	75	-6.47
COCC1CN(c2ncnc3c2ncn3CC2(CO)CCOCC2)CC(C)O1 (stereo not drawn)	-4	0.71
Cc1cnn(CC2CCCN2C(C)C(=O)Nc2cc(C)on2)c1 (stereo not drawn)	-2	0.29
Cc1nc(C)n(C2CN(C(=O)c3nc(-c4cnn(C)c4)oc3C)C2)n1	-9	1.55
Cc1cc(Cl)ccc1C(=O)N[C@H]1CN(CC(N)=O)C[C@@H]1C1CC1	1	-0.2
COc1ccccc1C(=O)NCc1ccc(-c2nc3ccccc3s2)cc1	-12	1.6

SMILES	% Inhibition [%]	Z score
CC(NC(=O)NC(C)c1ccc(-c2cccnc2)cc1)c1ccncc1 (stereo not drawn)	7	-1.01
Cc1nc2ccc(N(C)C(=O)[C@H]3CC(=O)N(C4CCCC4)C3)cc2s1	-7	0.94
CC(C)Cc1cc(C(=O)N2C[C@@H]3NC(=O)CN(C4CC4)Cc4cccc(c4)Oc4cccc(c4)CO[C@H]3C2)on1	1	-0.12
CN(Cc1cccc2cc[nH]c12)C[C@H]1COCCO1	-1	0.14
CC(C)NC(=O)N1CCC2(CC1)N[C@@H](C(C)C)C(=O)N2CCc1ccccn1	-3	0.52
Cc1n[nH]c(C)c1CCn1cnc(-c2ccccc2)c1-c1cccnc1	7	-1.04
O=C(O)C1(Oc2ccccc2F)CCN(c2nccs2)CC1	-10	1.65
CC(C)(C)n1nc2nc(N3CCCC3)nc(-c3ccc(F)c(Cl)c3)c2c1N	-2	0.26
Cc1nnc2n1CC(NC(C(=O)NC(C)C)c1ccccc1)CC2 (stereo not drawn)	-12	1.83
C[C@H](NC(=O)N1CCC(c2cc(=O)[nH]cn2)CC1)c1ccc(Cl)cc1	-3	0.42
Cn1ccnc1C(=O)N1CC(n2cc(C(=O)NCC3CC3)nn2)C1	-2	0.37
CCN1CN(Cc2cnnn2C)CC1=O	-5	0.92
CC(C)Oc1cc(N[C@H]2CCCC[C@@H]2O)nc(N)n1	-6	1.11
CCN(C(=O)c1occc1C)c1ncccc1C	-9	1.11
N#Cc1ccc([C@H]2CC(O)=Nc3nc(N4CCOCC4)sc32)cc1	-1	0.13
O=C(CCOc1ccc(F)cc1)N1CCc2[nH]ncc2C1	-11	1.22
CCCCS(=O)(=O)N1CCC2(CCCC2)C1	-5	0.45
CCOC(=O)[C@H]1CCCN(Cc2nc(N3CCCN(C(C)=O)CC3)c3ccccc3n2)C1	8	-1.06
CCO[C@H]1[C@H](NC(=O)c2cccnc2)c2ccccc2C12CCN(C(=O)c1cc(C(C)=O)n[nH]1)CC2	-11	2.21
CC#CCCn1cc(CCO)c(C(F)(F)F)n1	-14	1.73
O=C([C@H]1CC(=O)N(c2cccc(-c3noc(C4CCC4)n3)c2)C1)N1CCN(c2ccccc2)CC1	-1	0.14
